In PubChem BioAssay AID463173 (ICCB-Longwood Screening Facility, Harvard Medical School, 2010):
About 1,700 (3.3%) of roughly 52,000 compounds were called active. No stated cut-off is given here; in the data, active means survival mostly below about 52% (no sharp cut-off); inactive means mostly above about 56%. The list shows a part of the results.

system: Wild type; assay: growth inhibition of S. aureus wild type versus tarO mutant, primary screen, teichoic acid synthesis inhibitors, RN4220, OD600 (AID 463173); conditions: S. aureus RN4220 wild type/DeltatarO growth, OD600, 18 h, hits give low values, screened at 18.75 µg/mL (by protocol)

| Compound | survival |
| --- | --- |
| Cc1ccc(N2CCN(C(=O)Cc3c(C(=O)O)c(C)cn3C)CC2)c(C)c1 | inactive: 71% |
| Cc1ccc(S(=O)(=O)c2nnn3c2nc(N2CCN(c4ccc(F)cc4)CC2)c2cc(Cl)ccc23)cc1C | inactive: 90% |
| Cc1cccc(NC(=O)N2CCc3c(sc4c3CCCC4)C2c2ccc(F)cc2)c1 (stereo not drawn) | inactive: 32% |
| COc1cccc(-n2c(=O)c3c(C)c(C(=O)N(C)C)sc3n(CC(=O)NCCc3ccc(OC)c(OC)c3)c2=O)c1 | inactive: 73% |
| CCc1ccc(NC(=O)CSc2nc3nccnc3c(=O)n2CCc2c[nH]c3ccccc23)cc1 | inactive: 113% |
| COc1ccc(-c2nc(C)c(CCNC(=O)Cc3ccc(F)cc3)s2)cc1OC | inactive: 84% |
| CCc1ccc(NC(=O)C2CCN(C(=O)N3CC(CC)Oc4ccccc43)CC2)cc1 (stereo not drawn) | inactive: 66% |
| COC(=O)C(CCSC)NC(=O)c1c(C)oc2ncn(CC(C)C)c(=O)c12 (stereo not drawn) | inactive: 69% |
| Cc1ccc(NC(=O)C(=O)NCC(c2cccnc2)N2CCN(C)CC2)cc1F (stereo not drawn) | inactive: 86% |
| Cc1c(Cl)cccc1NC(=O)CSc1ncccc1C(=O)Oc1ccccc1Cl | inactive: 94% |
| CCOC(=O)c1ccc(NC(=O)c2ccc3c(c2)NC(=O)c2ccccc2S3)cc1 | inactive: 93% |
| Cc1nc2ccccc2c(=O)n1NC(=O)c1ccccc1 | inactive: 96% |
| COc1cccc(C(=O)Nc2ccc(-c3cn4cccnc4n3)cc2)c1OC | inactive: 133% |
| CCOc1ccc(NC(=O)Cn2ccn(-c3ccc(F)c(F)c3)c(=O)c2=O)cc1 | inactive: 117% |
| COc1ccc(CNC(=O)c2cccc(-n3cnc4cccnc43)c2C)cc1 | inactive: 72% |
| Cc1ccc(N2C(=O)c3[nH]nc(-c4ccc(Cl)cc4)c3C2c2ccc(F)cc2)cc1 (stereo not drawn) | inactive: 36% |
| COc1cc2ccccc2cc1C(=O)Nc1ccc(Cl)c(-c2nc3ccccc3o2)c1 | inactive: 41% |
| Cc1ccc2c(c1)cc(CN(Cc1ccco1)C(=O)c1ccccc1)c1nnnn12 | inactive: 95% |
| CCOCCSc1c(C)cnc2c1c(=O)n(C)c(=O)n2C | inactive: 57% |
| CCC(C)NC(=O)c1ccc2nc(Cc3ccc(OC)cc3)oc2c1 (stereo not drawn) | inactive: 71% |
| COc1ccc(Cc2nnc(SCC(=O)Nc3ccc(S(=O)(=O)N4CCCCCC4)cc3)o2)cc1 | inactive: 112% |
| CCn1ccc2cc(S(=O)(=O)N3CCC(C(=O)NCCc4ccc(C)cc4)CC3)ccc21 | inactive: 71% |

| Compound | survival |
| --- | --- |
| COc1ccc(NC(=O)CSCc2cnn(-c3ccccc3)c2-n2cccc2)cc1 | inactive: 123% |
| CC(C)CNC(=O)Cc1ccccc1 | inactive: 101% |
| Cc1ccc2[nH]c(=O)cc(C(=O)O)c2c1 | inactive: 118% |
| COc1cc(C(=O)N2CCN(CCc3ccccn3)CC2)cc(OC)c1OC | inactive: 82% |
| COc1cc(OC)cc(C(=O)NCC(c2cccs2)S(=O)(=O)c2ccc(F)c(C)c2)c1 (stereo not drawn) | inactive: 143% |
| Cc1nc2ccc(NC(=S)NCCCO)cc2nc1C | inactive: 105% |
| COc1ccccc1NC(=O)CN1C(=O)C2(SCC(=O)N2c2ccc(C)c(C)c2)c2ccccc21 (stereo not drawn) | inactive: 74% |
| Cc1ccc(N(CC(=O)Nc2cc(C)cc(C)c2)S(=O)(=O)c2cccc3nonc23)cc1 | inactive: 85% |
| CC1=C(c2ccc(C)cc2)S(=O)(=O)N(Cc2ccc(C(=O)Nc3ccc(F)cc3C)cc2)C1=O | inactive: 135% |
| O=CN1CCN(S(=O)(=O)c2ccc(S(=O)(=O)NC3CC3)cc2)CC1 | inactive: 110% |
| O=C(CSc1ccc(-c2ccc(F)cc2)nn1)N1CCOCC1 | inactive: 112% |
| NS(=O)(=O)c1ccc(NC(=O)c2ccc3c(c2)CCN3S(=O)(=O)c2ccccc2)cc1 | inactive: 75% |
| CC(CC(=O)Nc1ccc(Br)cc1F)S(=O)(=O)c1ccc2c(c1)NC(=O)CO2 (stereo not drawn) | inactive: 63% |
| CC(C)c1ccc(C2N=C(N)Nc3nc4ccccc4n32)cc1 (stereo not drawn) | inactive: 93% |
| Cc1cc(C)cc(NC(=O)Cn2c(=O)c3ccccc3n3nncc23)c1 | inactive: 84% |
| CCCCOc1ccc(CNC(=O)CCCN2C(=O)CSc3c2c(C)nn3-c2ccccc2)cc1 | inactive: 59% |
| CCOC(=O)c1ccccc1NC(=O)c1sc2nc3n(c(=O)c2c1C)CCCC3 | inactive: 111% |
| CCc1ccc(CNC(=O)CN2C(=O)c3cccnc3Oc3ccc(C)cc32)cc1 | inactive: 71% |
| Cc1ccc2c(=O)cc(C(=O)Nc3ccc(S(=O)(=O)N4CCCCCC4)cc3)oc2c1C | inactive: 72% |
| O=C(O)CCc1ccc(-c2ccc(F)cc2)n1CCC(=O)O | inactive: 105% |
| Cc1c(Cl)cccc1NC(=O)C(C)n1nnc2sc3c(c2c1=O)CCCC3 (stereo not drawn) | inactive: 97% |
| Cc1c(C)n(C)c2ccc(C(=O)N3CCN(c4ccccc4)CC3)cc12 | inactive: 64% |

| Compound | survival |
| --- | --- |
| COc1ccc(C2NCCO2)cc1OC (stereo not drawn) | inactive: 116% |
| CSc1ncc(Cl)c(C(=O)N(Cc2ccc(N(C)C)cc2)Cc2ccco2)n1 | inactive: 99% |
| Cc1ccc(CNC(=O)Cn2cc(C(=O)c3ccc(F)cc3)c(=O)c3ccc(C)nc32)cc1 | inactive: 64% |
| CCc1ccc(Cc2cnc(NC(=O)c3ccc4c(c3)CC(c3ccccc3)OC4=O)s2)cc1 (stereo not drawn) | inactive: 92% |
| Cc1cccc(C2CC(=O)Oc3c2c(=O)n(C)c2ccccc32)c1 (stereo not drawn) | inactive: 143% |
| CCOC(=O)C1CCN(C(=O)C2CCN(C3=NS(=O)(=O)C(c4ccc(C)c(C)c4)=C3C)CC2)CC1 | inactive: 80% |
| CC(C)CCNC(=O)C1CCC(Cn2c(=O)c3sccc3n(CC(=O)NC(C)C)c2=O)CC1 (stereo not drawn) | inactive: 87% |
| O=C(Cn1c(=O)n(-c2ccc(F)c(Cl)c2)c(=O)c2sc3ccccc3c21)NC1CCCC1 | inactive: 97% |
| Cc1ccc(-n2c(=O)c3oc4ccccc4c3n(Cc3ccccc3F)c2=O)cc1C | inactive: 115% |
| COc1ccc(CNC(=O)c2cc3c(s2)-c2ccccc2OC3)cc1 | inactive: 92% |
| CN(C)c1cc(Nc2ccc(Cl)cc2)c2c3c(onc13)-c1ccccc1C2=O | inactive: 96% |
| CCC(C)NC(=O)C(=O)Nc1c2c(nn1-c1ccccc1)CS(=O)(=O)C2 (stereo not drawn) | inactive: 72% |
| COc1ccc(CNCCC2(O)CC(C)N(C)CC2C)cc1OC (stereo not drawn) | inactive: 113% |
| O=C(c1ccc2c(c1)N(Cc1ccc(Cl)cc1)C(=O)c1ccccc1S2(=O)=O)N1CCCCC1 | inactive: 144% |
| CC1CN(C(=O)CCC(=O)NCc2ccc(F)cc2)c2cc(Cl)ccc2O1 (stereo not drawn) | inactive: 90% |
| COc1ccc(NC(=O)CSc2nc3c(oc4ccccc43)c(=O)n2-c2ccc(C)c(C)c2)cc1 | inactive: 94% |
| CCOC(=O)c1c(NC(C)=O)c2c3c(sc2n1Cc1nc(-c2ccccc2C)oc1C)CCCC3 | inactive: 89% |
| O=C(Nc1nc2ccc(F)cc2s1)c1nc(S(=O)(=O)Cc2ccccc2)ncc1Cl | inactive: 27% |
| O=C(O)C1CSC2c3ccccc3C(=O)N12 (stereo not drawn) | inactive: 124% |
| CCOc1ccc(CCNC(=O)C2COc3ccccc3C2)cc1OCC (stereo not drawn) | active: -2% |
| O=C(CN1C(=O)CCSc2ccccc21)Nc1ccccc1F | inactive: 81% |
| COc1cc(OC)c(NC(=O)NCc2ccc3c(c2)CCN3C(=O)c2ccccc2)cc1Cl | inactive: 97% |

| Compound | survival |
| --- | --- |
| COc1ccc2c(c1)CCc1c(C(=O)Nc3c(C)nn(Cc4ccc(Cl)c(Cl)c4)c3C)noc1-2 | inactive: 97% |
| CC1=C(C(=O)Nc2ccccc2)C(c2ccc(C)o2)NC(=S)N1 (stereo not drawn) | inactive: 109% |
| Cc1ccc(S(=O)(=O)c2nc(-c3cccc(C)c3)oc2N2CCN(c3ccccc3)CC2)cc1 | inactive: 117% |
| COC(=O)c1sc2cccc(F)c2c1S(=O)(=O)N1CCN(c2ccc(F)cc2)CC1 | inactive: 71% |
| Cc1nc2nc(SCC(=O)NCCc3ccc(Cl)cc3)nn2c(C)c1Cc1ccccc1 | inactive: 56% |
| CCCSc1ncc(Cl)c(C(=O)Nc2nc3ccc(OCC)cc3s2)n1 | inactive: 92% |
| Cc1ccc(CNC(=O)c2ccc3c(=O)n(-c4ccccc4)c(=O)[nH]c3c2)cc1 | inactive: 76% |
| COC(=O)C(CCSC)NC(=O)c1cc2c(n(-c3ccc(C)cc3)c1=O)CC(C)(C)CC2=O (stereo not drawn) | inactive: 77% |
| CC(=O)c1cc(C(=O)Nc2cc(C)cc(C)c2)c2ccccn12 | inactive: 64% |
| Cc1ccc2c(c1)cc1c(=O)n(CC(=O)NC3CCCCC3)nc(C)n12 | inactive: 91% |
| CCC(C)(C)n1nnnc1CN1CCC(NC(=O)COC)CC1 | inactive: 111% |
| CCc1ccccc1NC(=O)CSc1nc(-c2ccccc2OC)nc2c1Cc1c(CO)cnc(C)c1O2 | inactive: 79% |
| CCOC(=O)CC1c2cc(OCC)c(OCC)cc2CCN1C(=O)Nc1cccc(Cl)c1 (stereo not drawn) | inactive: 63% |
| Cc1cccn2c(=O)c3cc(C(=O)NCc4ccccc4)c(=N)n(CCOCCO)c3nc12 | inactive: 79% |
| CCOC(=O)c1ccc(N=C2NC(=O)/C(=C/c3ccc(N4CCOCC4)cc3)S2)cc1 | inactive: 107% |
| Cc1ccc(NC(=O)CSc2nc(=O)n(CCCN(C)C)c3c2CCC3)cc1F | inactive: 70% |
| CCCc1ccc(S(=O)(=O)N2CCC(Oc3ccc(-n4cnnn4)cc3)CC2)cc1 | inactive: 87% |
| CNC(=O)c1ccc(Nc2nnc(-c3ccc(C)c(S(=O)(=O)N(C)C)c3)c3ccccc23)cc1 | inactive: 68% |
| CCOC(=O)c1[nH]c(C)c(CCC(=O)NCc2ccccc2Cl)c1C | inactive: 90% |
| O=C(NCc1ccccc1)c1ccc2c(c1)CCN2S(=O)(=O)c1ccccc1 | inactive: 82% |
| CCC(=O)Nc1ccc(-c2nnc3c4ccccc4c(C)nn23)cc1 | inactive: 78% |
| COc1ccc(CCNC(=O)CCCn2c(=O)c3ccccc3n(Cc3c(C)cc(C)cc3C)c2=O)cc1OC | inactive: 91% |
